Data reported in publication PMC8892811.
Results are given in words; binding and its absence hold for the method and conditions named. Binding seen in cells or lysates may run through a third protein. Some binding calls cover weakened binding; strength is not graded here. For some of these results: Where a sequence is shown, tags or fusion partners need not be part of it.

Protein sequences, listed by entry. Tags and fused reporters are not part of them.
UniProt Q9CW03: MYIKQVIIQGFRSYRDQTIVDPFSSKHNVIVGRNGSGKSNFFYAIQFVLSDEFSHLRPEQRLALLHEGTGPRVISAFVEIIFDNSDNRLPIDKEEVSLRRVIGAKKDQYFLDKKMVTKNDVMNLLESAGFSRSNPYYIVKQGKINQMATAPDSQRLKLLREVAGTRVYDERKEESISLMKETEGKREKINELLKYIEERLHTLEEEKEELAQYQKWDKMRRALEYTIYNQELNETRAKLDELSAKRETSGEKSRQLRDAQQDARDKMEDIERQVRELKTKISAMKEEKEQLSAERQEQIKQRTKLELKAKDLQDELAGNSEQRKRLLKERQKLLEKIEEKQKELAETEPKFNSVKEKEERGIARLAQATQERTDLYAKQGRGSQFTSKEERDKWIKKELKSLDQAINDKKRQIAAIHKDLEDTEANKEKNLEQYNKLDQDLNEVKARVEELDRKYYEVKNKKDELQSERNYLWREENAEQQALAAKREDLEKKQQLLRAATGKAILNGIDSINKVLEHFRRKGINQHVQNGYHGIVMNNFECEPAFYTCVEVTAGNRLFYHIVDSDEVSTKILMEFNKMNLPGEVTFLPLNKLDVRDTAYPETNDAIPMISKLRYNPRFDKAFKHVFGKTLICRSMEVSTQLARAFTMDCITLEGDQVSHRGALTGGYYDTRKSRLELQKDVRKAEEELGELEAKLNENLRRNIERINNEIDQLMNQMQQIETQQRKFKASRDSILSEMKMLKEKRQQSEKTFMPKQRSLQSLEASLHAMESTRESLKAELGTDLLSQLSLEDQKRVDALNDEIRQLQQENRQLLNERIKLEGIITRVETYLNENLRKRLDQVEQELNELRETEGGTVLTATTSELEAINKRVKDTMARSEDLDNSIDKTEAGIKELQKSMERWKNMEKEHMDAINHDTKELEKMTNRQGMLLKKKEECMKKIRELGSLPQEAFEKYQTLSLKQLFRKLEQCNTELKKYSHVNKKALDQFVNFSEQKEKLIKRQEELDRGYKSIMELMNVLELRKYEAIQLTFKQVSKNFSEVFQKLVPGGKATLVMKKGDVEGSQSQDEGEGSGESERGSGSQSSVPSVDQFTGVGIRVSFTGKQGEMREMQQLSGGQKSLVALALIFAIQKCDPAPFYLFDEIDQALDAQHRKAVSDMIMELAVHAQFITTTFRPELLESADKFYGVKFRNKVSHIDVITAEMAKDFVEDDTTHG
UniProt Q6ZQK0: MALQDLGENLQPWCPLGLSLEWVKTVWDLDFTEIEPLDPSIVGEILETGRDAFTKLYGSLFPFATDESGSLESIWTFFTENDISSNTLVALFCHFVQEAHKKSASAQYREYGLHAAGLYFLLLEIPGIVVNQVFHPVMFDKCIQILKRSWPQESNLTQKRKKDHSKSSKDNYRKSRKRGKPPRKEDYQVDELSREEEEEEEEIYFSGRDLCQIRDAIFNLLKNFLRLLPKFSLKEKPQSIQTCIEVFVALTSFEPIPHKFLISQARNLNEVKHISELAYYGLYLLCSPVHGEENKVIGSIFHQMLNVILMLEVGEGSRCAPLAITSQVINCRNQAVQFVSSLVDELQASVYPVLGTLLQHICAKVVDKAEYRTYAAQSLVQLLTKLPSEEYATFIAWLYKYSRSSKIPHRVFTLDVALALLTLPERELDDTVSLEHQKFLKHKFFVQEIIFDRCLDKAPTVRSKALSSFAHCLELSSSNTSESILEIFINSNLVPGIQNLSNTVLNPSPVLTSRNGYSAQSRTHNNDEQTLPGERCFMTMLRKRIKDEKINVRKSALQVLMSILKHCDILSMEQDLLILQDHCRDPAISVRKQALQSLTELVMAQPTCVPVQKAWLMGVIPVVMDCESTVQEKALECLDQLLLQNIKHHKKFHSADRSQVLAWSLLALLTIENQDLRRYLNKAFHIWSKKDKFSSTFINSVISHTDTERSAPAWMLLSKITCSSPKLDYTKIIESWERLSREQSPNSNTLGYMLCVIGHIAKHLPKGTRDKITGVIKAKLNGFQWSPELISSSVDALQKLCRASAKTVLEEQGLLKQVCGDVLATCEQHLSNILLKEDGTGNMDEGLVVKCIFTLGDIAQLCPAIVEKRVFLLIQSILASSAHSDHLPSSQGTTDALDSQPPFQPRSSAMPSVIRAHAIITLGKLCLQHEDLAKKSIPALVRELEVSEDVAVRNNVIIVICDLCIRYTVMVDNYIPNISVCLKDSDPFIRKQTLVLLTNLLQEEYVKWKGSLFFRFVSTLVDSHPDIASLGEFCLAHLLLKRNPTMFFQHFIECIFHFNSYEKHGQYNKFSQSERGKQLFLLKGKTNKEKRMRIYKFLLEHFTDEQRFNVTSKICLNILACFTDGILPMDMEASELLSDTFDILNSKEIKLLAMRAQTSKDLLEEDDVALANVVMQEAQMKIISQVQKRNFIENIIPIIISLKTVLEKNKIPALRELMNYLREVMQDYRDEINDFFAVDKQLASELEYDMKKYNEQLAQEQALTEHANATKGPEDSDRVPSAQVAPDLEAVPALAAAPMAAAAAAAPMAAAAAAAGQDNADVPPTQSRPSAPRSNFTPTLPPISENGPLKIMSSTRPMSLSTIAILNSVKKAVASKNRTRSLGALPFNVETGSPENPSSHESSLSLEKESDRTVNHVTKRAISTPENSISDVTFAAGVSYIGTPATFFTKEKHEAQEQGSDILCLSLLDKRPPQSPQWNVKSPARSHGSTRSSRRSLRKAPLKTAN

Legend:
[1] = biological target: T1, RAD21 (mouse (endogenous in J1 ESCs)) (UniProt Q61550); test: co-IP; whole-cell extracts of ESCs (700 μg lysate; lysis buffer 50 mM Tris-HCl pH 7.6, 250 mM NaCl, 0.05% NP40) incubated with 1 μg anti-cohesin antibody (SMC3, RAD21, REC8, STAG1, STAG2, STAG3) overnight, protein A/G agarose 3 h at 4 °C, western blot
T1 sequence: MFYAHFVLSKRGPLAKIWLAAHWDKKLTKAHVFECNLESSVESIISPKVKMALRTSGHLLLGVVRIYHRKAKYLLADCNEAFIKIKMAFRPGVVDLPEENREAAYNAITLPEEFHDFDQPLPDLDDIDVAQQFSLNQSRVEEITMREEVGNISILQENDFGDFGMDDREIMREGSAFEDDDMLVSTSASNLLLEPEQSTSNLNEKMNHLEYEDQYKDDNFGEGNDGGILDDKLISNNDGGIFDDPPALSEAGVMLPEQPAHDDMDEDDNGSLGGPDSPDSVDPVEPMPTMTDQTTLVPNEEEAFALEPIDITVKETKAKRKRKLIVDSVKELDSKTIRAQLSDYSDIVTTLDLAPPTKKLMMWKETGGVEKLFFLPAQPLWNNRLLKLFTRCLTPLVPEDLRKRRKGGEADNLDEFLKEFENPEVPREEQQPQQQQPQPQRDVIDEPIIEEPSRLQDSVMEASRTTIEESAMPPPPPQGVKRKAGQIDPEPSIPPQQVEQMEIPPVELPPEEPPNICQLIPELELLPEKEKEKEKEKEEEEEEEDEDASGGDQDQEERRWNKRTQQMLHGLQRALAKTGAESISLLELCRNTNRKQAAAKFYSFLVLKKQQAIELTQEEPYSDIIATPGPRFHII

[2] = biological target: T2, REC8 (mouse (endogenous in J1 ESCs)) (UniProt Q8C5S7); test: as above
T2 sequence: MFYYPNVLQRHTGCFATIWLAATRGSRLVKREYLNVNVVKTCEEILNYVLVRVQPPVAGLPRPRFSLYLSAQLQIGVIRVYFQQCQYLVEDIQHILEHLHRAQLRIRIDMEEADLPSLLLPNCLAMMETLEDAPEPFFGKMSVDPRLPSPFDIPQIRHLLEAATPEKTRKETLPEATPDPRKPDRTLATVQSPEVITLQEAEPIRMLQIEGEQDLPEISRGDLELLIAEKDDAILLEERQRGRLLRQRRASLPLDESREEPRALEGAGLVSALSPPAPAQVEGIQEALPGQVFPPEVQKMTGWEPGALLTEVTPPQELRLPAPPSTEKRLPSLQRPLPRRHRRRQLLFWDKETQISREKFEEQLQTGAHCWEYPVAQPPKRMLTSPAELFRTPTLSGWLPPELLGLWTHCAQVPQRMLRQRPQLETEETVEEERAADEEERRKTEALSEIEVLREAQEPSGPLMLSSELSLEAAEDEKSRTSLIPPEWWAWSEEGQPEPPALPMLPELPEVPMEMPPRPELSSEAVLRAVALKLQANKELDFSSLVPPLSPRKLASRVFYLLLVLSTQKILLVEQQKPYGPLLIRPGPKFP

[3] = biological target: T3, STAG3 (mouse (endogenous in J1 ESCs)) (UniProt O70576); test: as above
T3 sequence: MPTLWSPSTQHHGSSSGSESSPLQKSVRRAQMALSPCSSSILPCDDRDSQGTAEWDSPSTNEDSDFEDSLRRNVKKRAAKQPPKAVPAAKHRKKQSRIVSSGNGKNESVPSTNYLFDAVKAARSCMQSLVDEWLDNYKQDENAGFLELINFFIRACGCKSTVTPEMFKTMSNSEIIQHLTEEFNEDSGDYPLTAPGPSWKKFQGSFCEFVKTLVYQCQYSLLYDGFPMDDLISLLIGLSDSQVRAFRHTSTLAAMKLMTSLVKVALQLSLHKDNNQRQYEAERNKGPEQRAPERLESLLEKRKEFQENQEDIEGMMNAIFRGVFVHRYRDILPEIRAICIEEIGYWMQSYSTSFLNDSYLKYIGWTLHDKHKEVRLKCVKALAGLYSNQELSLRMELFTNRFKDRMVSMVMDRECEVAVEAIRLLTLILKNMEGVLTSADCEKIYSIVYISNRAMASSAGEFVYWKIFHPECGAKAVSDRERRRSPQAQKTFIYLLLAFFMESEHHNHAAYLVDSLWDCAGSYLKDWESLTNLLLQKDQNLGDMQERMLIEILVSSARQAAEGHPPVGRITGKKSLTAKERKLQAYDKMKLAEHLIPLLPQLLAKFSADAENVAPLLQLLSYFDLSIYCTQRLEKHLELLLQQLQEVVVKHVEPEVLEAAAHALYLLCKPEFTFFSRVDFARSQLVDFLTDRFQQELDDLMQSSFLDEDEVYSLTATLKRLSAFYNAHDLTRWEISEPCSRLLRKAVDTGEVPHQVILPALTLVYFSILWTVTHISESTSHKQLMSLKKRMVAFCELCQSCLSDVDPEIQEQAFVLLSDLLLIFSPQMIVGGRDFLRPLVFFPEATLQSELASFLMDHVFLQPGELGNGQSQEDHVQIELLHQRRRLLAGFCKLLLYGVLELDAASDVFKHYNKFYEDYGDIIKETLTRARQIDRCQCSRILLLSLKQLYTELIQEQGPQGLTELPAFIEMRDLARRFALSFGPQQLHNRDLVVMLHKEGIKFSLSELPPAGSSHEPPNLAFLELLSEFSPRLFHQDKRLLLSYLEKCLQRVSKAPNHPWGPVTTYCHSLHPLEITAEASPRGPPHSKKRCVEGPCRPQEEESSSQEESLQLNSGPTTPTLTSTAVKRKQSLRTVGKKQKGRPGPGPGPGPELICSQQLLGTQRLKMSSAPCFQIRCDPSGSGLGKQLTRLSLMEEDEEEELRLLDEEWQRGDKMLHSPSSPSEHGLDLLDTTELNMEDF

[4] = biological target: T4, retinoblastoma-associated protein (RB) (mouse (endogenous in J1 ESCs)) (UniProt P13405); test: co-IP; immunoprecipitation of RB from ESC lysates followed by western blotting of CAP-D3; cells treated with siCtrl or siRNA against cohesin components (knockdown increased the interaction)
T4 sequence: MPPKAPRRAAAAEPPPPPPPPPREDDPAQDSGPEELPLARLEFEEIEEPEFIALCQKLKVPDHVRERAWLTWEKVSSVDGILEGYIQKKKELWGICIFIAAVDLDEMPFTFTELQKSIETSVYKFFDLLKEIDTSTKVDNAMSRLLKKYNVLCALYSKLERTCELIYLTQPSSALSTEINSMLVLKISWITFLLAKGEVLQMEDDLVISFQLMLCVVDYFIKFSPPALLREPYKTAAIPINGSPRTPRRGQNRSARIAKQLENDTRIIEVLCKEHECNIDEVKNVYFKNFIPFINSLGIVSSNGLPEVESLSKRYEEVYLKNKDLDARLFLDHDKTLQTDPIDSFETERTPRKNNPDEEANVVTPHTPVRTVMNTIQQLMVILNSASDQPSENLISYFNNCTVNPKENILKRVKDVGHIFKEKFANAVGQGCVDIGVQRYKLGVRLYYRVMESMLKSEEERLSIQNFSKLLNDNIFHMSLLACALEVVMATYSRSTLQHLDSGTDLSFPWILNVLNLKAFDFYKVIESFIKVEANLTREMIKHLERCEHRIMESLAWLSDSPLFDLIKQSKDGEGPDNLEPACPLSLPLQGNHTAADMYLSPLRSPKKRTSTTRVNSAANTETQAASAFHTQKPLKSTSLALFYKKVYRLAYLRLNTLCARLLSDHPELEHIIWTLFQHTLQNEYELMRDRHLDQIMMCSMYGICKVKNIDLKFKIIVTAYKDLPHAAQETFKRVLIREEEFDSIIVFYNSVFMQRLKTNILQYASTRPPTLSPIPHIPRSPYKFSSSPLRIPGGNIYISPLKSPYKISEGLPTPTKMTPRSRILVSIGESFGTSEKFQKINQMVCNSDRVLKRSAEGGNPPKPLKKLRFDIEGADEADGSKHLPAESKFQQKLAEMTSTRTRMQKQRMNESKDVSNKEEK

binding [1] | binding [2] | binding [3] | binding [4] | Substance
binds | binds | binds |  | SMC3 (from UniProt Q9CW03 1-1217)
 |  |  | binds | condensin II complex subunit D3 (CAP-D3) (from UniProt Q6ZQK0 1-1506)
